The whole screen tested about 320,000 compounds, of which about 200 (0.062%) were called active. This list was built around the results that the source calls inconclusive (neither active nor inactive); the mix of calls is not that of the screen. Calls come from the whole dose curve; as a rule, active = well fitted activation curve with a large enough effect; inconclusive = small, poorly fitted or top-dose-only effect; inactive = no such curve, though single readings can be large or run the other way. No potency is given beside an inconclusive call; the fits are too rough.
Experiment: qHTS assay for re-activators of p53 using a Luc reporter; note: nearly all actives have a fitted effect of over 45% in size
Conditions: H1299 p53-A138V BP100-luciferase reporter, luminescence, 24 h; series mostly up to 92.2 µM
Method in brief: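 H1299 (p53-null), stable ts p53-A138V + BP100-Luc; 1000 cells/well, Opti-MEM/10% FBS; cpd 4 pt, 1:5; 24 h, 37 deg C, 5% CO2; detection reagent 10 min RT; luminescence.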
Potency is the fitted concentration of half-maximal effect; tags give direction and shape of the fitted curve.

Row | SMILES | Potency
1 | CCSc1nnc(NC(=O)c2ccco2)s1 | inactive
2 | Cc1cc(NC(=O)c2ccc3c(c2)OCO3)no1 | inconclusive [activator, partial curve, poor fit]
3 | Nc1ncnc(Sc2ccccc2)c1[N+](=O)[O-] | inconclusive [activator, single point]
4 | O=C(Nc1ccc(/C=C/c2nc3ccccc3o2)cc1)c1cccc(C(F)(F)F)c1 | inconclusive [activator, partial curve, poor fit]
5 | COc1ccc2nc(NC(=O)c3cccc(OCc4c(C)noc4C)c3)sc2c1 | inconclusive [activator, full curve, poor fit]
6 | CCOC(=O)N1CCN(C(=O)CSCc2ccccc2Cl)CC1 | inconclusive [activator, partial curve]
7 | COc1ccc(-c2nc(NC(=O)CSc3nnc(C)s3)ns2)cc1 | inconclusive [activator, single point]
8 | Oc1ccccc1Nc1ccccn1 | inactive
9 | CCN(CC)CCNc1nc2c(c(=O)[nH]c(=O)n2C)n1CC(O)COc1ccc(Cl)cc1Cl (stereo not given) | inconclusive [activator, partial curve, poor fit]
10 | Clc1ccccc1CSc1cc2c(nn1)-c1ccccc1CC2 | inconclusive [activator, partial curve, poor fit]
11 | CC(C)(C)c1ccc(Cc2n[nH]c(=S)[nH]c2=O)cc1 | inactive
12 | C/C(=N/OC(=O)c1ccccc1Br)c1ccc(C)cc1 | inconclusive [activator, partial curve, poor fit]
13 | CCCCOc1cccc(C(=O)Nc2ccc(N3CCN(CC)CC3)cc2)c1 | inconclusive [activator, single point]
14 | Cc1ccc(COc2ccc(/C=N/O)cc2)cc1 | inconclusive [activator, partial curve, poor fit]
15 | Cc1ccc(N2C(=O)C3C(C(=O)c4ccccc4)=NN(c4ccccc4)C3C2=O)cc1 (stereo not given) | inconclusive [activator, single point]
16 | Cn1ncc(Cl)c1C(=O)Nc1sc2c(c1C(N)=O)CCC2 | inactive
17 | O=c1cc(-c2c(O)c3ccccc3n(Cc3ccccc3)c2=O)[nH][nH]1 | inactive
18 | O=S(=O)(c1ccc(NC(=S)NCCC(c2ccccc2)c2ccccc2)cc1)N1CCOCC1 | inactive
19 | CCCCn1c(N)c(-c2nc3ccccc3s2)c2c([N+](=O)[O-])nn(C)c(=O)c21 | inactive
20 | CC(/C=C/c1ccccc1F)=N\NC(=O)C(C)C | inconclusive [activator, partial curve]
21 | CC1(C)N=C(SCC(=O)Nc2ccc(Cl)cc2)C(c2ccc(Cl)cc2)=N1 | inactive
22 | COCCCN(C(=O)c1ccc2ccccc2n1)c1c(N)n(Cc2ccccc2)c(=O)[nH]c1=O | inconclusive [activator, partial curve, poor fit]
23 | O=C(O)Cc1sc(Nc2ccc(F)cc2)nc1-c1cccs1 | inactive
24 | CCc1ccc(OCC(=O)O/N=C(\N)c2ccncc2)c(Br)c1 | inconclusive [activator, full curve]

Row | SMILES | Potency
25 | CCOc1cc(C(=S)N2CCN(C)CC2)ccc1OCC(=O)N1CCOCC1 | inactive
26 | CC(C)CCN1CCC(Cc2ccccc2)(NC(=O)c2ccccc2)C1=O (stereo not given) | inconclusive [activator, single point]
27 | COc1cc(S(=O)(=O)N(Cc2ccccc2)Cc2ccccn2)ccc1-n1cnnn1 | inactive
28 | O=C(Nc1nnc(-c2ccccc2Cl)o1)c1ccco1 | inconclusive [activator, partial curve, poor fit]
29 | CCOc1cc(S(=O)(=O)NC2CCCCCC2)ccc1F | inconclusive [activator, full curve, poor fit]
30 | CN(C(=O)CSc1cc(C(=O)c2nccn2C)c2ccccc2n1)c1ccccc1 | inactive
31 | Cc1ccc(O)c(/C=N/NC(=O)c2[nH]ncc2Br)c1 | inconclusive [activator, partial curve, poor fit]
32 | O=C(Nc1cccc(Cl)c1Cl)c1ccc(-c2ccccc2)cc1 | inconclusive [activator, partial curve]
33 | Cc1cc(=O)n2[nH]c(-c3ccc(F)cc3)cc2n1 | inconclusive [activator, partial curve, poor fit]
34 | Cc1ccc(S(=O)(=O)N(C)C)cc1NC(=O)CSc1ncn[nH]1 | inactive
35 | COC(=O)/C=C1\N/C(=N/c2nc(C)c3cc(OC)ccc3n2)NC1=O | inconclusive [activator, single point]
36 | CCCCCNc1nc(N2CCCC2)c2c(c1C#N)CCN(C)C2 | inconclusive [activator, partial curve, poor fit]
37 | COc1ccc(N=CC2=C(O)CCCC2=O)cc1 | inconclusive [activator, partial curve, poor fit]
38 | COc1ccc(C2=NN(C(C#N)c3ccc(OC)cc3)C(c3ccccc3)C2)cc1 (stereo not given) | inconclusive [activator, full curve, poor fit]
39 | COc1ccc(Nc2nc(N)nc(CSC(=S)N3CCC(C)CC3)n2)cc1 | inconclusive [activator, partial curve, poor fit]
40 | O=C(NCc1ccco1)c1ccc(S(=O)(=O)N2CCCCCC2)cc1 | inconclusive [activator, single point]
41 | Cc1cc(C)n2nc(SCc3ccccc3C(=O)O)nc2n1 | inactive
42 | NC(=O)c1ccc[n+](Cc2cccc3ccccc23)c1 | inactive
43 | Clc1ccc(Nc2nc3cccnc3s2)cc1 | inconclusive [activator, full curve, poor fit]
44 | O=C1NC(c2ccc3c(c2)OCO3)Nc2ccccc21 (stereo not given) | inactive
45 | COc1ccc(/C(C)=N/Nc2nc3ccccc3n3cnnc23)cc1OC | inactive
46 | COC(=O)/N=C(/Cc1ccc(OC)cc1)c1ccc(OC)cc1 | inconclusive [activator, partial curve, poor fit]
47 | O=C(Cn1cnc2c(oc3ccccc32)c1=O)c1ccccc1 | inconclusive [activator, partial curve, poor fit]
48 | C/C(CC(=O)Nc1ccc(N(C)C)cc1)=N\NC(=O)c1ccccn1 | inconclusive [activator, partial curve, poor fit]

Row | SMILES | Potency
49 | O=C(NCCCN1CCCC1)c1ccc(CS(=O)(=O)c2ccc(Br)cc2)o1 | inconclusive [activator, full curve, poor fit]
50 | Cc1ccc(/C=N/Nc2nc(Cl)c(Cl)cc2Cl)s1 | inconclusive [activator, partial curve, poor fit]
51 | O=C(Nc1ccc2nn(-c3ccccc3)nc2c1)c1ccco1 | inconclusive [activator, partial curve, poor fit]
52 | O=C(N1CCN(c2ccccn2)CC1)C(Cl)(Cl)Cl | inconclusive [activator, partial curve, poor fit]
53 | O=C(O)c1cccc(Cn2c(Cl)c(/C=N/NC(=O)c3ccc(O)cc3)sc2=O)c1 | inactive
54 | CCn1ccc(C(=O)Nc2ccc(Cl)cn2)n1 | inconclusive [activator, full curve, poor fit]
55 | O=c1oc2ccccc2cc1-c1cn2cccnc2n1 | inconclusive [activator, full curve, poor fit]
56 | O=C(CN1CCN(S(=O)(=O)c2ccccc2)CC1)Nc1cccc(C(F)(F)F)c1 | inactive
57 | CCc1ccc(C(=O)Nn2cnc3ccccc3c2=O)cc1 | inconclusive [activator, full curve, poor fit]
58 | O=C(c1ccc2c(c1)OCO2)C1CCCN(C(=O)Nc2ccc(F)cc2F)C1 (stereo not given) | inconclusive [activator, partial curve, poor fit]
59 | CC(O)c1nc2ccccc2n1Cc1ccccc1 (stereo not given) | inconclusive [activator, single point]
60 | Cc1ccc(NC(=O)C2CCN(C(=O)[C@@H]3Cc4ccccc4CN3)CC2)cc1 | inconclusive [activator, partial curve, poor fit]
61 | O=C1/C(=C\c2ccncc2)CCc2ccccc21 | inconclusive [activator, single point]
62 | O=C(CC(c1ccco1)S(=O)(=O)c1ccccc1)c1ccc(F)cc1 (stereo not given) | inactive
63 | CN1CCN(c2nc3c(c(=O)n(C)c(=O)n3C)n2Cc2ccc(F)cc2)CC1 | inconclusive [activator, single point]
64 | Cc1ccc(-c2nc3cc(N)ccc3o2)cc1Br | inconclusive [activator, partial curve, poor fit]
65 | O=C1c2ccccc2NC(c2cccc([N+](=O)[O-])c2)N1CCc1ccccc1 (stereo not given) | inconclusive [activator, full curve, poor fit]
66 | BrCCOCCOc1ccc2ccccc2c1 | inactive
67 | O=c1oc2ccccc2c(Nc2ccc(F)cc2)c1[N+](=O)[O-] | inactive
68 | Nc1ccc2nc(-c3cc(Cl)c(N)c(Cl)c3)[nH]c2c1 | inconclusive [activator, partial curve, poor fit]
69 | Cc1cccc(NC(=O)c2cnc3sccn3c2=O)c1C | inactive
70 | CC(C)(C)NC(=O)CN(Cc1ccccc1)S(=O)(=O)c1ccccc1 | inconclusive [activator, single point]
